Article PMC4468608, “A distinct p53 target gene set predicts for response to the selective p53–HDM2 inhibitor NVP-CGM097” (eLife, 2015)
This continues a long series; more values of the same kind are listed elsewhere.

System: cell lines from the Cancer Cell Line Encyclopedia (CCLE)
Test: High-throughput cell viability assay, CCLE cell line panel (n = 356)
Type: cell-based, human
Protocol: Cell lines were partitioned into sensitive and insensitive groups based on compound potency (IC50). […] All other cell lines were obtained from ATCC (American Type Culture Collection), DSMZ (Deutsche Sammlung von Mikroorganismen und Zellkulturen), and HSRRB (Health Science Research Resources Bank) and cultured in RPMI or Dulbecco's modified Eagle's medium plus 10% FBS (Invitrogen, Carlsbad, CA) at 37°C, 5% CO2.

COc1cc2c(cc1OC(C)C)[C@H](c1ccc(Cl)cc1)N(c1ccc(N(C)C[C@H]3CC[C@H](N4CCNC(=O)C4)CC3)cc1)C(=O)C2 [NVP-CFC218]
sensitivity call (OCI-AML2, TP53 WT): sensitive (Sensitivity call for each compound was applied according to a cut-off of 4 µM for IC50 and -50% for Amax) | Amax (OCI-LY10, TP53 MUT): -8.00% | sensitivity call (OCI-LY10, TP53 MUT): insensitive (Sensitivity call for each compound was applied according to a cut-off of 4 µM for IC50 and -50% for Amax) | Amax (OPM-2, TP53 MUT): -2.80% | sensitivity call (OPM-2, TP53 MUT): insensitive (Sensitivity call for each compound was applied according to a cut-off of 4 µM for IC50 and -50% for Amax) | Amax (OVCAR-4, TP53 MUT): 3.62% | sensitivity call (OVCAR-4, TP53 MUT): insensitive (Sensitivity call for each compound was applied according to a cut-off of 4 µM for IC50 and -50% for Amax) | Amax (OVSAHO, TP53 MUT): -32.55% | sensitivity call (OVSAHO, TP53 MUT): insensitive (Sensitivity call for each compound was applied according to a cut-off of 4 µM for IC50 and -50% for Amax) | Amax (P12-ICHIKAWA, TP53 MUT): -93.77% | sensitivity call (P12-ICHIKAWA, TP53 MUT): sensitive (Sensitivity call for each compound was applied according to a cut-off of 4 µM for IC50 and -50% for Amax) | Amax (PC-3, TP53 MUT): -20.98% | sensitivity call (PC-3, TP53 MUT): insensitive (Sensitivity call for each compound was applied according to a cut-off of 4 µM for IC50 and -50% for Amax) | Amax (PC-14, TP53 MUT): -25.08% | sensitivity call (PC-14, TP53 MUT): insensitive (Sensitivity call for each compound was applied according to a cut-off of 4 µM for IC50 and -50% for Amax) | Amax (PE/CA-PJ49, TP53 WT): -24.87% | sensitivity call (PE/CA-PJ49, TP53 WT): insensitive (Sensitivity call for each compound was applied according to a cut-off of 4 µM for IC50 and -50% for Amax) | Amax (PK-1, TP53 MUT): 1.38% | sensitivity call (PK-1, TP53 MUT): insensitive (Sensitivity call for each compound was applied according to a cut-off of 4 µM for IC50 and -50% for Amax) | Amax (PSN1, TP53 MUT): -6.25% | sensitivity call (PSN1, TP53 MUT): insensitive (Sensitivity call for each compound was applied according to a cut-off of 4 µM for IC50 and -50% for Amax) | Amax (Panc 04.03, TP53 MUT): -4.12% | sensitivity call (Panc 04.03, TP53 MUT): insensitive (Sensitivity call for each compound was applied according to a cut-off of 4 µM for IC50 and -50% for Amax) | Amax (RCM-1, TP53 MUT): -5.50% | sensitivity call (RCM-1, TP53 MUT): insensitive (Sensitivity call for each compound was applied according to a cut-off of 4 µM for IC50 and -50% for Amax) | Amax (RERF-GC-1B, TP53 MUT): -0.99% | sensitivity call (RERF-GC-1B, TP53 MUT): insensitive (Sensitivity call for each compound was applied according to a cut-off of 4 µM for IC50 and -50% for Amax) | Amax (RERF-LC-AI, TP53 WT): 1.17% | sensitivity call (RERF-LC-AI, TP53 WT): insensitive (Sensitivity call for each compound was applied according to a cut-off of 4 µM for IC50 and -50% for Amax) | Amax (RERF-LC-MS, TP53 MUT): -40.30% | sensitivity call (RERF-LC-MS, TP53 MUT): insensitive (Sensitivity call for each compound was applied according to a cut-off of 4 µM for IC50 and -50% for Amax) | Amax (RKO, TP53 WT): -56.51% | sensitivity call (RKO, TP53 WT): insensitive (Sensitivity call for each compound was applied according to a cut-off of 4 µM for IC50 and -50% for Amax) | Amax (RPMI-8402, TP53 MUT): -4.88% | sensitivity call (RPMI-8402, TP53 MUT): insensitive (Sensitivity call for each compound was applied according to a cut-off of 4 µM for IC50 and -50% for Amax) | Amax (RT-112, TP53 MUT): 2.33% | sensitivity call (RT-112, TP53 MUT): insensitive (Sensitivity call for each compound was applied according to a cut-off of 4 µM for IC50 and -50% for Amax) | Amax (Reh, TP53 WT): -80.40% | sensitivity call (Reh, TP53 WT): sensitive (Sensitivity call for each compound was applied according to a cut-off of 4 µM for IC50 and -50% for Amax) | Amax (S-117, TP53 MUT): 0.17% | sensitivity call (S-117, TP53 MUT): insensitive (Sensitivity call for each compound was applied according to a cut-off of 4 µM for IC50 and -50% for Amax) | Amax (SBC-5, TP53 MUT): -1.36% | sensitivity call (SBC-5, TP53 MUT): insensitive (Sensitivity call for each compound was applied according to a cut-off of 4 µM for IC50 and -50% for Amax) | Amax (SCC-25, TP53 MUT): -16.71% | sensitivity call (SCC-25, TP53 MUT): insensitive (Sensitivity call for each compound was applied according to a cut-off of 4 µM for IC50 and -50% for Amax) | Amax (SF-295, TP53 MUT): -1.59% | sensitivity call (SF-295, TP53 MUT): insensitive (Sensitivity call for each compound was applied according to a cut-off of 4 µM for IC50 and -50% for Amax) | Amax (SH-10-TC, TP53 MUT): -2.17% | sensitivity call (SH-10-TC, TP53 MUT): insensitive (Sensitivity call for each compound was applied according to a cut-off of 4 µM for IC50 and -50% for Amax) | Amax (SHP-77, TP53 MUT): -4.02% | sensitivity call (SHP-77, TP53 MUT): insensitive (Sensitivity call for each compound was applied according to a cut-off of 4 µM for IC50 and -50% for Amax) | Amax (SJRH30, TP53 MUT): -35.44% | sensitivity call (SJRH30, TP53 MUT): insensitive (Sensitivity call for each compound was applied according to a cut-off of 4 µM for IC50 and -50% for Amax) | Amax (SK-BR-3, TP53 MUT): 2.51% | sensitivity call (SK-BR-3, TP53 MUT): insensitive (Sensitivity call for each compound was applied according to a cut-off of 4 µM for IC50 and -50% for Amax) | Amax (SK-LMS-1, TP53 MUT): -25.67% | sensitivity call (SK-LMS-1, TP53 MUT): insensitive (Sensitivity call for each compound was applied according to a cut-off of 4 µM for IC50 and -50% for Amax) | Amax (SK-LU-1, TP53 MUT): 1.54% | sensitivity call (SK-LU-1, TP53 MUT): insensitive (Sensitivity call for each compound was applied according to a cut-off of 4 µM for IC50 and -50% for Amax) | Amax (SK-MEL-30, TP53 MUT): -2.63% | sensitivity call (SK-MEL-30, TP53 MUT): insensitive (Sensitivity call for each compound was applied according to a cut-off of 4 µM for IC50 and -50% for Amax) | Amax (SK-MES-1, TP53 MUT): -5.06% | sensitivity call (SK-MES-1, TP53 MUT): insensitive (Sensitivity call for each compound was applied according to a cut-off of 4 µM for IC50 and -50% for Amax) | Amax (SK-N-AS, TP53 WT): -3.46% | sensitivity call (SK-N-AS, TP53 WT): insensitive (Sensitivity call for each compound was applied according to a cut-off of 4 µM for IC50 and -50% for Amax) | Amax (SK-OV-3, TP53 MUT): 0.64% | sensitivity call (SK-OV-3, TP53 MUT): insensitive (Sensitivity call for each compound was applied according to a cut-off of 4 µM for IC50 and -50% for Amax) | Amax (SNU-182, TP53 MUT): 4.52% | sensitivity call (SNU-182, TP53 MUT): insensitive (Sensitivity call for each compound was applied according to a cut-off of 4 µM for IC50 and -50% for Amax) | Amax (SU-DHL-4, TP53 MUT): -29.17% | sensitivity call (SU-DHL-4, TP53 MUT): insensitive (Sensitivity call for each compound was applied according to a cut-off of 4 µM for IC50 and -50% for Amax) | Amax (SUP-M2, TP53 WT): -96.77% | sensitivity call (SUP-M2, TP53 WT): sensitive (Sensitivity call for each compound was applied according to a cut-off of 4 µM for IC50 and -50% for Amax) | Amax (SW480, TP53 MUT): -19.98% | sensitivity call (SW480, TP53 MUT): insensitive (Sensitivity call for each compound was applied according to a cut-off of 4 µM for IC50 and -50% for Amax) | Amax (SW 900, TP53 MUT): -4.18% | sensitivity call (SW 900, TP53 MUT): insensitive (Sensitivity call for each compound was applied according to a cut-off of 4 µM for IC50 and -50% for Amax) | Amax (SW 1353, TP53 MUT): -52.12% | sensitivity call (SW 1353, TP53 MUT): insensitive (Sensitivity call for each compound was applied according to a cut-off of 4 µM for IC50 and -50% for Amax) | Amax (SW1417, TP53 MUT): 7.38% | sensitivity call (SW1417, TP53 MUT): insensitive (Sensitivity call for each compound was applied according to a cut-off of 4 µM for IC50 and -50% for Amax) | Amax (SW 1783, TP53 MUT): -4.15% | sensitivity call (SW 1783, TP53 MUT): insensitive (Sensitivity call for each compound was applied according to a cut-off of 4 µM for IC50 and -50% for Amax) | Amax (T98G, TP53 MUT): -2.69% | sensitivity call (T98G, TP53 MUT): insensitive (Sensitivity call for each compound was applied according to a cut-off of 4 µM for IC50 and -50% for Amax) | Amax (TE 617.T, TP53 WT): -70.15% | sensitivity call (TE 617.T, TP53 WT): sensitive (Sensitivity call for each compound was applied according to a cut-off of 4 µM for IC50 and -50% for Amax) | Amax (TOV-21G, TP53 WT): -55.82% | sensitivity call (TOV-21G, TP53 WT): insensitive (Sensitivity call for each compound was applied according to a cut-off of 4 µM for IC50 and -50% for Amax) | Amax (TT2609-C02, TP53 MUT): -12.03% | sensitivity call (TT2609-C02, TP53 MUT): insensitive (Sensitivity call for each compound was applied according to a cut-off of 4 µM for IC50 and -50% for Amax) | Amax (U-937, TP53 MUT): -25.04% | sensitivity call (U-937, TP53 MUT): insensitive (Sensitivity call for each compound was applied according to a cut-off of 4 µM for IC50 and -50% for Amax) | Amax (VMRC-RCZ, TP53 WT): 0.87% | sensitivity call (VMRC-RCZ, TP53 WT): insensitive (Sensitivity call for each compound was applied according to a cut-off of 4 µM for IC50 and -50% for Amax) | Amax (WM-115, TP53 WT): -82.69% | sensitivity call (WM-115, TP53 WT): sensitive (Sensitivity call for each compound was applied according to a cut-off of 4 µM for IC50 and -50% for Amax) | Amax (WSU-DLCL2, TP53 MUT): 8.42% | sensitivity call (WSU-DLCL2, TP53 MUT): insensitive (Sensitivity call for each compound was applied according to a cut-off of 4 µM for IC50 and -50% for Amax)
